# Measured values: PubChem BioAssay (Tox21)
# Several values for one entry are separate records, joined by “and”; a condition that tells them apart may be missing. Identical values can stand only once. Activity calls are given as the source filed them. Unless noted, calls come from the whole dose curve; as a rule, active = well fitted curve in the direction sought with a large enough effect in the repeat runs; inconclusive = weak or mixed curves; inactive = no such curve, though single readings can be large; an effect the other way counts as inactive or inconclusive.
# Tests used:
# [1] = target: Androgen receptor (Homo sapiens) (UniProt P10275); assay: qHTS assay to identify small molecule antagonists of the androgen receptor (AR) signaling pathway (AID 743035; active = well fitted inhibition curve with a large enough effect in the signal ratio in the repeat runs, not every such curve was filed as active; inconclusive = weak or mixed curves, or effect the other way; inactive = no such curve, though single readings can be large or run the other way; the % refers to the signal ratio; for activity change, negative = inhibition: % is set by controls: 0 for no effect and ±100 for the full control effect); details: HEK293 AR-UAS-bla, R1881-stimulated, beta-lactamase FRET, 16 h; activity change, negative = inhibition: at 58.5 µM (top of the series) unless noted
# Chain of UniProt P10275 (P10275 whole entry, looked up): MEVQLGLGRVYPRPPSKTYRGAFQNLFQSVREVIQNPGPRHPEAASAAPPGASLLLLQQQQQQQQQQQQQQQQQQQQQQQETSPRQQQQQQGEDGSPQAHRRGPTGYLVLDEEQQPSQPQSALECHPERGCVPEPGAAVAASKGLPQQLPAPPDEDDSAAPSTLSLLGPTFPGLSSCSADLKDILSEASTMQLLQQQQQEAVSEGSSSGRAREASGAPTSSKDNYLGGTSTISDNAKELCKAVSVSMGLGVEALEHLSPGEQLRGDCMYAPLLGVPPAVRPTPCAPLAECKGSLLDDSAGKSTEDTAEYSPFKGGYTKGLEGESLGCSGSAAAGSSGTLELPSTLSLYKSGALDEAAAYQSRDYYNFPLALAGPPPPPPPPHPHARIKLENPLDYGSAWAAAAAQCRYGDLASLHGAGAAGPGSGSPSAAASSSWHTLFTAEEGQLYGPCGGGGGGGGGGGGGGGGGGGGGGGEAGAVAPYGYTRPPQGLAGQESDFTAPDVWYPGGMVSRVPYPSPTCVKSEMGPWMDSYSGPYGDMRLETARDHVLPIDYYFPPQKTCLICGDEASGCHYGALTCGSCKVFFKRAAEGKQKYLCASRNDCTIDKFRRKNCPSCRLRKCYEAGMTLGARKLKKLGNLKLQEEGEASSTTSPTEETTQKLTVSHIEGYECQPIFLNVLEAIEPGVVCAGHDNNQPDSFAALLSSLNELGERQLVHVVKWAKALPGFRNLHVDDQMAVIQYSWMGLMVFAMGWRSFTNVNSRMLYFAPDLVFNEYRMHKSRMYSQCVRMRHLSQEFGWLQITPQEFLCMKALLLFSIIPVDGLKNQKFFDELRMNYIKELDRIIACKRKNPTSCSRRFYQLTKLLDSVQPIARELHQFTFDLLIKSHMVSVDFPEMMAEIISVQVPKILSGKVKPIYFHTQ
# Summary of the method: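 Using qHTS, AR-UAS-bla GripTite HEK293 cells received compound, then R1881, and were cultured 16 h at 37C/5% CO2 before a 2 h room-temperature LiveBLAzer B/G FRET substrate step and fluorescence measurement.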
# [2] = qHTS assay to identify small molecule antagonists of the androgen receptor (AR) signaling pathway using the MDA cell line - cell viability counter screen (AID 743041; note: nearly all actives have a fitted effect of over 45% in size; for viability change, negative = cytotoxic: % is set by controls: 0 for no effect and ±100 for the full control effect); details: MDA-kb2 viability, CellTiter-Fluor, 16 h, cells co-treated with R1881 androgen agonist; viability change, negative = cytotoxic: at 70.3 µM (top of the series) unless noted
# Summary of the method: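 Same-well cytotoxicity was assessed by CellTiter-Fluor in MDA-kb2 AR-luc cells after 16 h of compound treatment under R1881 agonism.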
# [3] = qHTS assay to identify small molecule antagonists of the thyroid receptor (TR) signaling pathway - cell viability counter screen (AID 743064); details: GH3.TRE-Luc viability, CellTiter-Fluor, 24 h; activity change, negative = cytotoxic: at 70.3 µM (top of the series); note: nearly all actives have a fitted effect of over 50% in size
# Summary of the method: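 GH3.TRE-Luc cells, 4 h pre-plating; cpd + T3 1 nM final; 37 °C 23.5 h; CellTiter-Fluor 30 min; fluorescence read.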
# [4] = qHTS assay to identify small molecule antagonists of the thyroid receptor (TR) signaling pathway (AID 743065); note: nearly all actives have a fitted effect of over 55% in size
# Summary of the method: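 GH3.TRE-Luc rat pituitary cells (two TREs driving luciferase) were dosed with compound, then stimulated with 1 nM T3 (final) for 23.5 h at 37 C. ONE-Glo luminescence was the read-out, with CellTiter-Fluor fluorescence as the cytotoxicity counter-screen.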
# [5] = target: Estrogen receptor (Homo sapiens) (UniProt P03372); assay: qHTS assay to identify small molecule antagonists of the estrogen receptor alpha (ER-alpha) signaling pathway (AID 743069; active = well fitted curve in the direction sought with a large enough effect in the signal ratio in the repeat runs, not every such curve was filed as active; inconclusive = weak or mixed curves, or effect the other way; inactive = no such curve, though single readings can be large or run the other way; the % refers to the signal ratio); details: HEK293 ER-alpha-UAS-bla, beta-lactamase ratio, antagonist mode; activity, negative = inhibition: at 69.4 µM (top of the series)
# Chain of UniProt P03372 (P03372 whole entry, looked up): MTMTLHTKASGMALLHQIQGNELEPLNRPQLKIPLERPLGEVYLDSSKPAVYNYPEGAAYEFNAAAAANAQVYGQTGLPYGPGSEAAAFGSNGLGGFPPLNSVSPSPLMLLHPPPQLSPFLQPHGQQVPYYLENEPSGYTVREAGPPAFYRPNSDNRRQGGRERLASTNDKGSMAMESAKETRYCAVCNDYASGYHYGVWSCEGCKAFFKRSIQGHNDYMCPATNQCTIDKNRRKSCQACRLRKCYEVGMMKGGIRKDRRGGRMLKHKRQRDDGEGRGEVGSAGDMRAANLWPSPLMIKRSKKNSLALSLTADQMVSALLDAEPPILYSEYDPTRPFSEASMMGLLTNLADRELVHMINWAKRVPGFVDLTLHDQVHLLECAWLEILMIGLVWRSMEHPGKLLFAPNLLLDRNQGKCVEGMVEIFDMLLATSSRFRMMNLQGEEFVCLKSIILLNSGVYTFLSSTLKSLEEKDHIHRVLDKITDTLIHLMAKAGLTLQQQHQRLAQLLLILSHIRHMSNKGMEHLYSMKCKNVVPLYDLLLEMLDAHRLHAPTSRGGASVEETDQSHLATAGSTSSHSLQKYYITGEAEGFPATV
# Summary of the method: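 Reporter cells (ER-alpha-bla, HEK293 background) are conditioned overnight in stripped-serum medium (2% charcoal-stripped FBS). Compound and 17beta-estradiol exposure runs 18 hr at 37C, 5% CO2.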
# [6] = qHTS assay to identify small molecule antagonists of the estrogen receptor alpha (ER-alpha) signaling pathway - cell viability counter screen (AID 743074; calls by dose curve;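 note: HEK293 cells carrying ER-alpha-UAS-bla reporter stimulated with 17beta-estradiol; nearly all actives have a fitted effect of over 45% in size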)
# [7] = target: Estrogen receptor (Homo sapiens) (UniProt P03372); assay: qHTS assay to identify small molecule agonists of the estrogen receptor alpha (ER-alpha) signaling pathway (AID 743075; calls by dose curve;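 note: HEK293 GripTite cells with ER-alpha and UAS-driven beta-lactamase reporter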); details: HEK293 ER-alpha-UAS-bla, beta-lactamase FRET ratio, 18 h; activation: at 70.1 µM (top of the series)
# [8] = target: Estrogen receptor (Homo sapiens) (UniProt P03372); assay: qHTS assay to identify small molecule agonists of the estrogen receptor alpha (ER-alpha) signaling pathway using the BG1 cell line (AID 743079); details: BG1Luc4E2 cells, ERE-luciferase agonist, 22 h; activation: at 70.3 µM (top of the series) unless noted; note: nearly all actives have a fitted effect of over 20% in size; for activation: % is set by controls: 0 for no effect and ±100 for the full control effect
# [9] = target: Peroxisome proliferator-activated receptor gamma (Homo sapiens) (UniProt P37231); assay: qHTS assay to identify small molecule antagonists of the peroxisome proliferator-activated receptor gamma (PPARg) signaling pathway (AID 743191; calls by dose curve; note: nearly all actives have a fitted effect of over 30% in size; for ratio activity, negative = inhibition: % is set by controls: 0 for no effect and ±100 for the full control effect); details: HEK293H PPARg-UAS-bla, beta-lactamase ratio, antagonist, 17 h; ratio activity, negative = inhibition: at 62.6 µM (top of the series) unless noted
# Chain of UniProt P37231 (P37231 whole entry, looked up): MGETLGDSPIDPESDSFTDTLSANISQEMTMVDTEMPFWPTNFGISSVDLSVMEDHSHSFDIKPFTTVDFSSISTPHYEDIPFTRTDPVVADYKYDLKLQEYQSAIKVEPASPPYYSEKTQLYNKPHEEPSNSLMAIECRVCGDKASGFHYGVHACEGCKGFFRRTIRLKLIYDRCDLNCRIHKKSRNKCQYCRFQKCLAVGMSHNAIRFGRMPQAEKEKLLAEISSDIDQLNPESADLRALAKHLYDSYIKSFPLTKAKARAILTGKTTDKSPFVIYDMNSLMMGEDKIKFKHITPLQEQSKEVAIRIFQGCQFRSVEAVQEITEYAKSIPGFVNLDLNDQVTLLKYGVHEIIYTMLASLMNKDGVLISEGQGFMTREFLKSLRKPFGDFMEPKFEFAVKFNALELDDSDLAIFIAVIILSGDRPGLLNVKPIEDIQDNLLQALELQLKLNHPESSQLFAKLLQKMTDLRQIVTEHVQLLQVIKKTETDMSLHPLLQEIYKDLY
# Summary of the method: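 GeneBLAzer PPARg UAS-bla HEK293H cells, 5 h post-plating, exposed to compounds 17 h at 37C. LiveBLAzer B/G FRET substrate added for 1 h at room temperature; beta-lactamase reporter read by fluorescence intensity.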
# [10] = target: Androgen receptor (Homo sapiens) (UniProt P10275); assay: qHTS assay to identify small molecule agonists of the androgen receptor (AR) signaling pathway (AID 743036; active = well fitted activation curve with a large enough effect in the signal ratio in the repeat runs, with a control signal flat, not every such curve was filed as active; inconclusive = weak or mixed curves, or effect the other way; inactive = no such curve, though single readings can be large or run the other way; the % refers to the signal ratio); details: HEK293 AR-UAS-bla GripTite, beta-lactamase FRET ratio, 16 h; activation: at 62.4 µM (top of the series) unless noted
# Summary of the method: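 AR-bla HEK293 cells, 2,000/well; 4 h preincubation 37C/5% CO2; compound (DMSO) 16 h at 37C; LiveBLAzer B/G FRET substrate 2 h RT; fluorescence intensity read-out.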
# [11] = qHTS assay to identify small molecule antagonists of the estrogen receptor alpha (ER-alpha) signaling pathway using the BG1 cell line (AID 743080; calls by dose curve;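 note: BG1 cells stimulated with 17beta-estradiol alongside compound; nearly all actives have a fitted effect of over 25% in size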); details: BG1Luc4E2 ERE-luciferase antagonist mode, luminescence; activity change, negative = inhibition: at 70.3 µM (top of the series) unless noted
# Summary of the method: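 BG1Luc4E2, endogenous ER-alpha, 4xERE-luc; 5 d charcoal-stripped FBS, phenol red free; 24 h plating; cpd + 17beta-estradiol 21.5 h, 37 C/5% CO2; CellTiter-Fluor viability 30 min, then ONE-Glo luciferase 30 min RT.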
# [12] = qHTS assay to identify small molecule antagonists of the estrogen receptor alpha (ER-alpha) signaling pathway using the BG1 cell line - cell viability counter screen (AID 743081);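 note: compound given together with 17beta-estradiol as the ER stimulus; nearly all actives have a fitted effect of over 45% in size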
# [13] = qHTS assay to identify aromatase inhibitors - cell viability counter screen (AID 743084);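 note: cells stimulated with testosterone during compound exposure; nearly all actives have a fitted effect of over 55% in size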
# [14] = target: Peroxisome proliferator-activated receptor gamma (Homo sapiens) (UniProt P37231); assay: qHTS assay to identify small molecule agonists of the peroxisome proliferator-activated receptor gamma (PPARg) signaling pathway (AID 743094; active = well fitted activation curve with a large enough effect in the signal ratio in the repeat runs, not every such curve was filed as active; inconclusive = weak or mixed curves, or effect the other way; inactive = no such curve, though single readings can be large or run the other way; the % refers to the signal ratio); details: HEK293H PPARg-UAS-bla, beta-lactamase FRET ratio, 17 h; activation: at 57 µM (top of the series) unless noted
# Summary of the method: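 Following 5 h plating at 37C, PPARg-bla HEK293H cells receive compound or DMSO for 17 h; fluorescence intensity is recorded after LiveBLAzer B/G loading for 1 h at room temperature.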
# [15] = target: Androgen receptor (Homo sapiens) (UniProt P10275); assay: qHTS assay to identify small molecule antagonists of the androgen receptor (AR) signaling pathway using the MDA cell line (AID 743042; note: nearly all actives have a fitted effect of over 55% in size)
# Summary of the method: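 MDA-kb2 breast carcinoma cells carrying MMTV-luciferase (AR/GR responsive) were co-treated with compounds and the agonist R1881 for 16 h at 37C. Inhibition read as ONE-Glo luminescence; CellTiter-Fluor fluorescence measured in parallel for cytotoxicity.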
# [16] = tested on: thyroid hormone receptor (rat, GH3 cells); assay: qHTS assay to identify small molecule agonists of the thyroid receptor (TR) signaling pathway (AID 743066; calls by dose curve); details: GH3.TRE-Luc cells, TR agonist luciferase, 24 h; activation: at 83.9 µM (top of the series) unless noted
# Aromatase (Homo sapiens) = Aromatase (Homo sapiens) (UniProt P11511); assay: qHTS assay to identify aromatase inhibitors (AID 743083); note: nearly all actives have a fitted effect of over 55% in size
# Chain of UniProt P11511 (P11511 whole entry, looked up): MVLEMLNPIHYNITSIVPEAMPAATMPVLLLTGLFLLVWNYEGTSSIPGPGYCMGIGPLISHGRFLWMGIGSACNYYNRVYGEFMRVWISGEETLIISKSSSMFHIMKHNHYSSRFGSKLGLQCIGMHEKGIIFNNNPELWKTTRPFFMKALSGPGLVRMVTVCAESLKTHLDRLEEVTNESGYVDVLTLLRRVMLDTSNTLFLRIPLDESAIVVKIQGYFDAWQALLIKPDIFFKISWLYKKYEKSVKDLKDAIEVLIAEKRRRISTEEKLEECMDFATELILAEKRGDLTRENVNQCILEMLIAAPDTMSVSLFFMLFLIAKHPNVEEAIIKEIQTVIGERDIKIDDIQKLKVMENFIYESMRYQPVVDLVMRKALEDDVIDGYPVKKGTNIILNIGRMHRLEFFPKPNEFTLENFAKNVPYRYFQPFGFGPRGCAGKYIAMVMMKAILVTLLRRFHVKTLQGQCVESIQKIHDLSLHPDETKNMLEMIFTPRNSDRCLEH
# [17] = qHTS assay to identify small molecule that activate the aryl hydrocarbon receptor (AhR) signaling pathway - cell viability counter screen (AID 743086); note: nearly all actives have a fitted effect of over 45% in size
# Summary of the method: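 HepG2-AhR-luc (HG2L7.5c1) cells, 4000/well, treated 24 h at 37 C with compound; viability measured as CellTiter-Fluor fluorescence after 30 min in the same wells as the luciferase read.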
# Potency is the fitted concentration of half-maximal effect; tags give direction and shape of the fitted curve or compound fluorescence and quenching.
smiles,measurement,setting,value
CCOP(=S)(OCC)Oc1nc(Cl)c(Cl)cc1Cl,Potency,[1],inconclusive: 21.9 µM
same,"activity change, negative = inhibition",[1],inconclusive: 2.03%
same,Potency,[2],inactive
same,Potency,[3],"inconclusive: 38.6 µM [cytotoxic, partial curve, poor fit]"
same,Potency,[4],"inconclusive: 61.3 µM [inhibitor] and inconclusive: 68.6 µM [inhibitor, single point]"
same,Potency,[5],"inconclusive: 13.8 µM [activator, full curve, poor fit]"
same,Potency,[6],"inconclusive: 55.1 µM [cytotoxic, partial curve]"
same,Potency,[7],inconclusive: 1.23 µM [full curve]
same,activation,[8],inconclusive: -13.8% [phenotype inactive]
same,"ratio activity, negative = inhibition",[9],inconclusive: -33.2% and inconclusive: 4.91%
C[C@@H]1CC[C@@]2(OC1)O[C@H]1[C@@H](O)[C@H]3[C@@H]4CC[C@H]5C[C@@H](O[C@@H]6O[C@H](CO)[C@H](O[C@@H]7O[C@H](CO)[C@@H](O)[C@H](O[C@@H]8OC[C@@H](O)[C@H](O)[C@H]8O)[C@H]7O[C@@H]7O[C@H](CO)[C@@H](O)[C@H](O[C@@H]8O[C@H](CO)[C@@H](O)[C@H](O)[C@H]8O)[C@H]7O)[C@H](O)[C@H]6O)[C@H](O)C[C@]5(C)[C@H]4CC[C@]3(C)[C@H]1[C@@H]2C,Potency,[1],"inconclusive: 2.61 µM [falling, full curve]"
same,Potency,[10],"inconclusive: 8.24 µM [falling, partial curve]"
same,Potency,[2],active: 25.8 µM
same,Potency,[5],inconclusive: 46.3 µM [cytotoxic]
same,Potency,[6],active: 10.4 µM
same,Potency,[8],"inconclusive: 51.5 µM [inhibitor, partial curve]"
same,Potency,[11],"inconclusive: 72.8 µM [falling, single point]"
same,Potency,[12],active: 64.9 µM
same,Potency,[13],active: 2.9 µM
same,Potency,[14],"inconclusive: 16.4 µM [falling, full curve]"
same,Potency,[9],"inconclusive: 46.3 µM [cytotoxic, partial curve]"
[Cl][Hg][c]1ccccc1,Potency,[1],"inconclusive: 17.4 µM [falling, full curve]"
same,Potency,[10],"inconclusive: 49 µM [falling, partial curve]"
same,Potency,[15],active: 0.969 µM
same,Potency,[3],active: 0.243 µM
same,Potency,[16],"inconclusive: 0.193 µM [inhibitor, partial curve, poor fit]"
same,Potency,[5],"inconclusive: 12.3 µM [rising, full curve]"
same,Potency,[6],active: 12.3 µM
same,Potency,[7],active: 4.36 µM [fluorescent]
same,Potency,[8],"inconclusive: 0.864 µM [inhibitor, full curve]"
same,Potency,[11],"inconclusive: 27.3 µM [falling, partial curve]"
same,Potency,[12],active: 30.6 µM
same,Potency,Aromatase (Homo sapiens),active: 1.37 µM
same,Potency,[14],inconclusive: 30.9 µM [partial curve]
CC(=O)C(Cl)(Cl)Cl,Potency,[1],active: 5.31 µM
same,activation,[10],inconclusive: 0.186%
same,Potency,[2],active: 26.4 µM
same,Potency,[3],active: 5.9 µM
same,Potency,[16],inactive
same,Potency,[5],active: 1.88 µM [inconclusive]
same,Potency,[7],"inconclusive: 21.1 µM [falling, partial curve]"
same,Potency,[8],"inconclusive: 8.34 µM [inhibitor, full curve]"
same,Potency,[11],"inconclusive: 7.43 µM [falling, full curve]"
same,Potency,[12],active: 23.5 µM
same,Potency,[13],active: 18.7 µM
same,Potency,[9],"inconclusive: 0.473 µM [rising, full curve, poor fit]"
Cc1cc(N=Nc2ccccc2C)ccc1N,Potency,[1],inconclusive: 3.89 µM and active: 21.9 µM
same,Potency,[10],"inconclusive: 54.9 µM [cytotoxic, single point]"
same,activation,[10],inconclusive: 0.0242%
same,Potency,[3],"active: 24.3 µM and inconclusive: 68.6 µM [cytotoxic, single point]"
same,activation,[16],inconclusive: -8.86% [phenotype inactive]
same,Potency,[12],active: 24.3 µM and active: 27.3 µM
same,Potency,Aromatase (Homo sapiens),"inconclusive: 38.6 µM [inhibitor, partial curve, poor fit]"
same,Potency,[13],"inconclusive: 68.6 µM [cytotoxic, partial curve]"
same,Potency,[17],active: 5.45 µM and active: 2.73 µM
same,Potency,[14],"inconclusive: 5.49 µM [inhibitor, full curve] and inconclusive: 4.36 µM [inhibitor, partial curve, poor fit]"
same,Potency,[9],"inconclusive: 4.36 µM [inhibitor, partial curve]"
same,"ratio activity, negative = inhibition",[9],inconclusive: -0.338%
